Test results reported in PubChem BioAssay AID1814 (Broad Institute, 2009).
The whole screen tested about 300,000 compounds, of which about 22,000 (7.3%) were called active. The inconclusive results got no clear call from the source; some entries with a clear call stand among them for comparison. Rule as the data show it: active = activity score below about -60%; inconclusive = mostly about -28% to -61%; inactive = positive scores.

test: Activators via SNCA 5'UTR binding, MLPCN (AID 1814); settings: alpha-synuclein 5'UTR reporter, activators screen; stronger effect = lower value; tested at 7.5 µM

Structure (SMILES)	activity score
CCN(CC)c1ccc(C(=S)NC2CCCCC2)cc1	active: -64%
O=C(NCCc1ccc(Cl)cc1)Nc1ccc(F)cc1	inconclusive: -51.1%
CCCCOC(=O)Nc1nnc(CC)s1	inconclusive: -51.1%
COc1cnc(-c2ccccn2)nc1Oc1ccccc1	inconclusive: -47.5%
Cc1nn2cc(-c3cccc(Cl)c3)cnc2c1Cl	inconclusive: -58.2%
C=CCn1c(SCc2c(C)noc2C)nc2sc3c(c2c1=O)CCCCC3	inactive: 64.7%
O=C(/C=C/c1ccc(F)cc1)Nc1nc2ccccc2[nH]1	active: -129%
Brc1ccc2oc(-c3ccn[nH]3)cc2c1	active: -175%
Cc1ccc(N2C(=O)Nc3cc(Cl)c(Cl)cc3N2O)cc1Cl	active: -99.4%
O=c1cc(-c2ccccc2)[nH]c2cc(Cl)ccc12	inactive: 104%
CCc1ccc(/C=C2\SC(=S)N(CCC(=O)NC3=NCCS3)C2=O)cc1	inactive: 89.5%
Cc1ccc(/C=N/NC(=O)c2cc(-c3cccnc3)nc3ccccc23)cc1	inactive: 80.9%
COC(=O)c1nn(-c2ccc(-c3ccccc3)cc2)cc1O	inactive: 67%
C=CCOC(=O)c1[nH]c2c(c1C)C(=O)CC(c1ccco1)C2 (stereo not drawn)	inactive: 69.2%
CCn1c(SCC(=O)N/N=C/c2ccc(C)s2)nc2ccccc21	inconclusive: -52.8%
O=C1NC(=S)S/C1=C/c1ccc(Oc2cnccn2)cc1	inconclusive: -58.3%
Cc1cccc(Nc2ncc3c(n2)CC(c2ccco2)CC3=O)c1 (stereo not drawn)	inconclusive: -52%
O=C(Nc1nnc(-c2ccccc2)s1)c1ccccc1O	active: -153%
Cc1nn2c(-c3ccco3)nnc2c2ccccc12	inconclusive: -57.5%
CC(=O)Nc1cccc(NC(=O)c2ccc(Br)cc2)c1	inconclusive: -56.4%
CCOc1ccc(N2C(=O)CC(Sc3nc(CC(C)C)ccc3C#N)C2=O)cc1 (stereo not drawn)	inconclusive: -41%
O=C(CCCc1nc(-c2ccccc2Cl)no1)NC1CCCC1	inactive: 98.8%
O=C(NC1=NCCS1)Nc1ccccc1	active: -121%
Cc1ccc(COc2ccc(/C=N/NC(=O)c3nnn(-c4nonc4N)c3COc3ccc(F)cc3)cc2)cc1	inconclusive: -50.4%
COc1ccc2c(c1)CC/C(=C\C=C\c1ccccc1OC)C2=O	active: -134%

Structure (SMILES)	activity score
COc1ccc(/C=N/NC(=O)c2ccc(NC(=O)c3cccc([N+](=O)[O-])c3)cc2)c(OC)c1	inconclusive: -57%
CCCCOc1ccc2c(c1)C(=O)c1cc(O)ccc1-2	active: -209%
Cc1cc(Cl)c(S(=O)(=O)Nc2ccc3c(c2)OCCO3)cc1OCC(N)=O	inconclusive: -54.1%
O=C(c1ccco1)N1CCc2ccccc21	active: -97.4%
CN(Cc1ccccc1)C(=O)c1cc(-c2ccc(Br)cc2)on1	inconclusive: -54.8%
CCCCC(=O)OCc1nc(N)nc(Nc2ccccc2C)n1	inconclusive: -60.3%
CCOC(=O)N/N=C/c1cn(Cc2ccc(Cl)cc2)c2ccccc12	inactive: 69.7%
Cc1ccc(NC(=O)C2CCCO2)c(Br)c1 (stereo not drawn)	inconclusive: -54.7%
CCN(CC)S(=O)(=O)c1cc(C(=O)OC)ccc1Cl	inconclusive: -28.3%
CCN(CC)c1ccc2cc(NC(=O)CCC(=O)O)c(=O)oc2c1	inactive: 120%
CC(=O)N(Cc1ccc(F)cc1)C1=C(NCCc2ccccc2)C(=O)c2ccccc2C1=O	inactive: 69.6%
O=C1c2cc(F)ccc2-n2c1nc1ccccc1c2=O	inactive: 65.8%
COc1ccc(C(=O)C(/C=N/O)=N/Nc2ccc(F)cc2)cc1	inconclusive: -52.3%
O=C(COC(=O)CCN1C(=O)/C(=C\C=C\c2ccccc2)SC1=S)Nc1ccc(Br)cc1	inactive: 64.8%
Cn1cnc2cc(NCc3cccs3)ccc21	inconclusive: -56.7%
COc1cc(SC)ccc1C(=O)Nc1ccc(C)cc1C	inconclusive: -54.4%
Cc1ccc(Nc2c(N)c(=O)oc3ccccc23)cc1	inconclusive: -60%
CCn1cc(Br)c(C(=O)Nc2ccc(Cl)c(Cl)c2)n1	active: -151%
CCCNC(=O)NC1CCCc2ccccc21 (stereo not drawn)	inconclusive: -20.6%
CCOc1ccccc1CNC(=O)c1cc2oc3ccccc3c2n1C	inactive: 50.9%
COc1ccc(/C(C)=N/NC(=O)c2cccc(S(=O)(=O)N3CCCC3)c2)c(O)c1	inactive: 77.6%
CCCNC(=O)C(=O)NCCC1=CCCCC1	inconclusive: -51.5%
CN(C)CCCNc1cc(C(C)(C)C)nc2c(-c3ccc(Cl)cc3)cnn12	inactive: 108%
CCn1nnc(NC(=O)C(c2ccccc2)c2ccccc2)n1	inconclusive: -24.5%
C=CCOC(=O)C1=C(C)NC(SCC)=C(C#N)C1c1ccc(Cl)cc1 (stereo not drawn)	inactive: 67%

Structure (SMILES)	activity score
Fc1ccc(-c2nnsc2Sc2ccccn2)cc1	active: -84.5%
Cc1cc(C)c(C(=O)CN2C(=O)NC3(CCCCCC3)C2=O)cc1C	active: -72.2%
O=C1CNC(=S)N1c1nc2ccccc2s1	inactive: 40.7%
C(=N\Nc1ccc2ccccc2n1)/c1ccc2c(c1)OCO2	inactive: 88.2%
CCOC(=O)c1cnc(-n2nc(C)cc2C)nc1NNc1cc(-c2ccccc2)nc(C)n1	inactive: 92.7%
Oc1ccc(CNc2ccccc2F)c2cccnc12	inactive: 86.7%
CCn1nnc2cc(C(=O)NCCc3ccccc3F)ccc21	inactive: 63%
CN(C)CCNC(=O)c1cc2c(=O)n(C)c3ccccc3c2n1C	inconclusive: -59.5%
CCOc1cc(/C=N/Nc2nc3ccccc3[nH]2)cc(Br)c1OCC(=O)N(C)C	inconclusive: -59%
O=C(Nc1cccnc1)c1cc(-c2ccc(Br)cc2)on1	inconclusive: -49.2%
COc1ccc(C2=COc3ccccc3C(=O)N2)cc1	inconclusive: -57.1%
COC(=O)c1nn(-c2ccc3c(c2)CCN3C(C)=O)cc1O	inactive: 90.6%
CC(=O)Nc1ccc(-c2csc(NC(=O)Nc3ccccc3)n2)cc1	inconclusive: -55.8%
COc1ccc(C(=O)NC(=O)Nc2cc(C)ccn2)cc1	inactive: 72%
O=C(c1cccs1)N(C(=O)c1cccs1)c1ccc(Br)cn1	active: -144%
S=C(Nc1ccc(N2CCOCC2)cc1)Nc1ccc2snnc2c1	inconclusive: -40.6%
CC(C)(C)c1ccc(OCCOCCn2cnc3ccccc3c2=O)cc1	inconclusive: -43.9%
O=C(N/N=C\c1cc(Br)ccc1O)c1ccc(S(=O)(=O)N2CCCCC2)cc1	inactive: 110%
CCCCSc1nnc(-c2ccc(OC)cc2)n1C	active: -133%
COc1ccc(CCC(=O)Nc2ccc(-c3noc(-c4ccc(OC)c(OC)c4)n3)cc2)cc1	active: -158%
CCN(Cc1ccccc1)S(=O)(=O)c1ccc(C(=O)N(CCCN(C)C)c2nc3c(C)c(C)ccc3s2)cc1	inconclusive: -44.6%
N#CCCCC#Cc1ccc2c(c1)COc1c3ccccc3nn1-2	inactive: 76.7%
O=C(COc1ccc(Br)cc1CO)Nc1ccc(F)cc1	inconclusive: -59.2%
Cc1cc(O)c2c(c1)C(=O)c1cc(O)cc(O)c1C2=O	inconclusive: -53.5%
O=C(Nc1ccc(N2CCOCC2)cc1)c1cccc2ccccc12	inconclusive: -61.3%

Structure (SMILES)	activity score
Cc1ccc(NC(=O)c2ccc(OC(F)F)cc2)cc1S(=O)(=O)N(C)C	inconclusive: -59.7%
CCOc1ccc(-n2nc3ccc(NC(=O)c4ccc5c(c4)OCCO5)cc3n2)cc1	inactive: 47.4%
C=C(C)CNC(=O)CCc1nnc(Cc2cccc(C(F)(F)F)c2)o1	inconclusive: -58.8%
OC(COc1ccc(CNCCc2ccc(C(F)(F)F)cc2)cc1)CN1CCCCC1 (stereo not drawn)	inactive: 82.2%
Cc1ccc(OC(=O)c2ccc3snnc3c2)cc1	inconclusive: -44.4%
CCc1ccc(Nc2ncccc2C#N)cc1	active: -67.7%
O=C(NC(=S)Nc1cccnc1)c1ccccc1	inconclusive: -60.5%
N#Cc1ccc(/C=C/C(=O)c2ccccc2)cc1	inconclusive: -61%
N#C/C(=C(/O)c1ccco1)c1nc2ccccc2[nH]1	inconclusive: -55.1%
CC(C)c1ccc(O)c(NC(=O)c2ncn[nH]2)c1	inconclusive: -16.2%
CCC(CC)NC(=O)c1cc2c(C)nn(Cc3ccccc3Cl)c2s1	inactive: 70.5%
Cc1cc(N2CCN(c3ccccc3)CC2)nc2ccccc12	inconclusive: -49.2%
Cc1cc(C)cc(NS(=O)(=O)c2ccc3c(c2)c(=O)n(C)c(=O)n3C)c1	inactive: 58.2%
CC1CC(Nc2ccccc2)=NC1(C)C (stereo not drawn)	inconclusive: -48.7%
Cc1c(/C=N\NC(=O)c2c[nH]c3ccccc23)cnn1C	inconclusive: -60.2%
CC1CCCCN1C(=O)CSCC(=O)Nc1nc(-c2cccs2)cs1 (stereo not drawn)	inconclusive: -59.2%
CN(C)/C=C/C(=O)/C=C/c1ccc(Cl)cc1Cl	active: -150%
Cc1cc2nc(-c3ccc4c(c3)CCC4)ccn2n1	inconclusive: -61%
Cc1cccc2cc(C#N)c(SCC(=O)N3CC(=O)Nc4ccccc43)nc12	inactive: 110%
c1ccc(-c2ccc(OCCN3CCOCC3)cc2)cc1	active: -93.6%
CCN1CCN(c2cc(C)c3cc(NC(=S)N4CCCCC4)ccc3n2)CC1	active: -85.3%
O=C(Nc1ccc(N2CCN(Cc3ccccc3F)CC2)cc1)c1ccc([N+](=O)[O-])o1	inactive: 105%
Cc1ccc(NC(=S)Nc2ccc3cn[nH]c3c2)cc1C	inconclusive: -59.4%
